Measurements: PMC4453211
No constants are given. Whether binding was seen depends on the method and setting. Binding seen in cells or lysates may run through a third protein. Some binding calls cover weakened binding; strength is not graded here. For some of these results: Where a sequence is shown, tags or fusion partners need not be part of it.

Chains of the proteins cited; added tags and fusions are not shown. Lines headed by an entry give the natural chain unless they say otherwise; changes in a name come on top.
UniProt P05556: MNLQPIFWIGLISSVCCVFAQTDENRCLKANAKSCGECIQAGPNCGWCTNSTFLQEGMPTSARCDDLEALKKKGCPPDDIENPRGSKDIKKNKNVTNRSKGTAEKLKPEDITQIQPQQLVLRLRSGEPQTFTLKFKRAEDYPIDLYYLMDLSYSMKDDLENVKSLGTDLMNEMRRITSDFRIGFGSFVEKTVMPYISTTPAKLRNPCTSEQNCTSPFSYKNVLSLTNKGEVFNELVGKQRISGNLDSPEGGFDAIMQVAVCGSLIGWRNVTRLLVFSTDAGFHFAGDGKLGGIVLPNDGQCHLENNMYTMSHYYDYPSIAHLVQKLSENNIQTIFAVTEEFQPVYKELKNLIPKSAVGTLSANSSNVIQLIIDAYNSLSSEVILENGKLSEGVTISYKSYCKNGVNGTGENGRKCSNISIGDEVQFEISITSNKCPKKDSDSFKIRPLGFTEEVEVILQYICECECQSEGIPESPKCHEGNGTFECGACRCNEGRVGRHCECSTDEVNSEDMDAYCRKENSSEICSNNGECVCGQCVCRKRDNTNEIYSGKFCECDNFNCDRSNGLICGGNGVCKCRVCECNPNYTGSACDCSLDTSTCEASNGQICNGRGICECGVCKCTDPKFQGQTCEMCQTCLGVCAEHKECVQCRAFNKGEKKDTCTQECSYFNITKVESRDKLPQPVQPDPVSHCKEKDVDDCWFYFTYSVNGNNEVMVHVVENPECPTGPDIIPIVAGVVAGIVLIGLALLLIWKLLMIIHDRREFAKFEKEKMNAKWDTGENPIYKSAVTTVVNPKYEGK

T1: human platelet-type 12-lipoxygenase (human (endogenous in A431)) (UniProt P18054)
T1 sequence: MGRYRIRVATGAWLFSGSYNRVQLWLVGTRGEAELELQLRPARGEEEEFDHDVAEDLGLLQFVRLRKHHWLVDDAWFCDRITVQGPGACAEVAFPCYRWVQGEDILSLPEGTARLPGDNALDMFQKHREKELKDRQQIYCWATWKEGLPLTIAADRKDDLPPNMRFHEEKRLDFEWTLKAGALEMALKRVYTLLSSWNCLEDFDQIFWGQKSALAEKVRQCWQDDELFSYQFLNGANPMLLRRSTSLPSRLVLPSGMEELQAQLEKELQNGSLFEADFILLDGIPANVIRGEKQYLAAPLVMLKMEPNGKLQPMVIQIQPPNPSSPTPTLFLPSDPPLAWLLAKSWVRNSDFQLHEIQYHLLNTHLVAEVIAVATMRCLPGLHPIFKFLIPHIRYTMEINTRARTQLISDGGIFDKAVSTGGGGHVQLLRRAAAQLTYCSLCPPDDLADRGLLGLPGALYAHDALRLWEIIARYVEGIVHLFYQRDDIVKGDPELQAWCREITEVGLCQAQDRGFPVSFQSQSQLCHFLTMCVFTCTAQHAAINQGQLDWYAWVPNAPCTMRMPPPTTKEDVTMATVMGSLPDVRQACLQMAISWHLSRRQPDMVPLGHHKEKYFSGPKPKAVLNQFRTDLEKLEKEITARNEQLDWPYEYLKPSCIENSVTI

T2: headless, truncated human integrin β4 (pCMV-β4 Δ70-660), extracellular sequences replaced by a c-myc epitope tag (human) (UniProt P16144)
T2 sequence: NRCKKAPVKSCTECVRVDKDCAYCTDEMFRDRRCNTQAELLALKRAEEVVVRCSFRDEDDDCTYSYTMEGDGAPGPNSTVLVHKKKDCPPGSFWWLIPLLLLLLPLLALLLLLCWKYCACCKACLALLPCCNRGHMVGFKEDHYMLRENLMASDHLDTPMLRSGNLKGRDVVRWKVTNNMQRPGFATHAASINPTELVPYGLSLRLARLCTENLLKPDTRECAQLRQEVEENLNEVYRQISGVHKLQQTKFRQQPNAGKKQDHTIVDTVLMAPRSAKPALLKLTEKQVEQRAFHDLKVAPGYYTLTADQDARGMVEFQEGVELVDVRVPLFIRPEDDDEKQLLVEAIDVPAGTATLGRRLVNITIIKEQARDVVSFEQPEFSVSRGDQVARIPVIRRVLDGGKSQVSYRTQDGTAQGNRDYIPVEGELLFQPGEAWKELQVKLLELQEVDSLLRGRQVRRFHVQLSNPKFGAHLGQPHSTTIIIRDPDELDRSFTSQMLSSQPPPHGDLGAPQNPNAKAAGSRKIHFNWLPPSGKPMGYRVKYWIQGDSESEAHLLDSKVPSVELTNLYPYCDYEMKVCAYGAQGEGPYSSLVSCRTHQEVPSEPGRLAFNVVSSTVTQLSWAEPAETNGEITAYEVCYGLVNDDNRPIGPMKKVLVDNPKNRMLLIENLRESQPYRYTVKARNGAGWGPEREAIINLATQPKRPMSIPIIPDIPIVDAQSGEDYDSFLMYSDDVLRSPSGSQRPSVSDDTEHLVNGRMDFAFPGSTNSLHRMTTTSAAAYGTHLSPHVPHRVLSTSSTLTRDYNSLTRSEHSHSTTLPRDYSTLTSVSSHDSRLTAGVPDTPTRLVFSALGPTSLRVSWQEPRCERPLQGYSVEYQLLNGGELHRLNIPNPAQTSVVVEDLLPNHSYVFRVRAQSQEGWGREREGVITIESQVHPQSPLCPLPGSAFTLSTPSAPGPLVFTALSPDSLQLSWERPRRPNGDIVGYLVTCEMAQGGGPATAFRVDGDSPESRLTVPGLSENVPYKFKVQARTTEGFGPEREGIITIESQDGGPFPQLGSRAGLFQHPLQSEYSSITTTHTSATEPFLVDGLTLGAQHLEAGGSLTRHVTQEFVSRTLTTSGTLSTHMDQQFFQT

T3: tail-less, truncated human integrin β4 lacking the cytoplasmic domain (pCMV-β4 Δ854-1752) (human) (UniProt P16144)
T3 sequence: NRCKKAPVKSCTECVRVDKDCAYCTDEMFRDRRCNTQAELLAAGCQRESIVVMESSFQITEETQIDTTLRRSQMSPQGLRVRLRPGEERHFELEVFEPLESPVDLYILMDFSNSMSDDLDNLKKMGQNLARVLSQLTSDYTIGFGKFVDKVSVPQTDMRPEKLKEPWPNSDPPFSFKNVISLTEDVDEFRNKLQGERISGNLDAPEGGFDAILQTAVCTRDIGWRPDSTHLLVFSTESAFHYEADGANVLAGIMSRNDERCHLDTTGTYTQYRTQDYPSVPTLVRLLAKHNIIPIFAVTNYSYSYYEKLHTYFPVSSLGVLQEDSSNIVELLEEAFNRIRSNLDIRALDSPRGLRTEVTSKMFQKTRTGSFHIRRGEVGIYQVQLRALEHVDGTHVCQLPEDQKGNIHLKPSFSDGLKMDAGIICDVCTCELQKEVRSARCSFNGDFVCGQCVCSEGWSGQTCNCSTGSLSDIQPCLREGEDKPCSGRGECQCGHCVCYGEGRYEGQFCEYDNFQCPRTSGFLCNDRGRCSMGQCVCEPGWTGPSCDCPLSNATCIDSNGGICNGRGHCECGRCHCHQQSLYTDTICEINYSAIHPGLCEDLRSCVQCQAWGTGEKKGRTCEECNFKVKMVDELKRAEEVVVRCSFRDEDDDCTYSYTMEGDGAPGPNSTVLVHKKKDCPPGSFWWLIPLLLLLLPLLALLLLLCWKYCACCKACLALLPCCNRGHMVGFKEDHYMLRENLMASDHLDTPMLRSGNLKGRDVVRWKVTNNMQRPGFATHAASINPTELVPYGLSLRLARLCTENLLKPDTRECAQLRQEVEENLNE

B1: human 12-LOX, full-length cDNA, expressed in CHO cells (enzyme, UniProt P18054 1-663)
chain: MGRYRIRVATGAWLFSGSYNRVQLWLVGTRGEAELELQLRPARGEEEEFDHDVAEDLGLLQFVRLRKHHWLVDDAWFCDRITVQGPGACAEVAFPCYRWVQGEDILSLPEGTARLPGDNALDMFQKHREKELKDRQQIYCWATWKEGLPLTIAADRKDDLPPNMRFHEEKRLDFEWTLKAGALEMALKRVYTLLSSWNCLEDFDQIFWGQKSALAEKVRQCWQDDELFSYQFLNGANPMLLRRSTSLPSRLVLPSGMEELQAQLEKELQNGSLFEADFILLDGIPANVIRGEKQYLAAPLVMLKMEPNGKLQPMVIQIQPPNPSSPTPTLFLPSDPPLAWLLAKSWVRNSDFQLHEIQYHLLNTHLVAEVIAVATMRCLPGLHPIFKFLIPHIRYTMEINTRARTQLISDGGIFDKAVSTGGGGHVQLLRRAAAQLTYCSLCPPDDLADRGLLGLPGALYAHDALRLWEIIARYVEGIVHLFYQRDDIVKGDPELQAWCREITEVGLCQAQDRGFPVSFQSQSQLCHFLTMCVFTCTAQHAAINQGQLDWYAWVPNAPCTMRMPPPTTKEDVTMATVMGSLPDVRQACLQMAISWHLSRRQPDMVPLGHHKEKYFSGPKPKAVLNQFRTDLEKLEKEITARNEQLDWPYEYLKPSCIENSVTI

Assays:
[1] = target: T1, human platelet-type 12-lipoxygenase (human (endogenous in A431)); experiment: co-IP; A431 cells and A431 12-LOX transfectants, serum-starved, stimulated with anti-β4 mAb 3E1 (5 μg/ml, 5-90 min) or grown on laminin; lysis in 1 % Triton X-100, 0.5 % NP-40, 150 mM NaCl, 10 mM Tris pH 7.4; IP with anti-12-LOX, anti-β1 or anti-β4 antibody and protein G Sepharose at 4 °C; Western blot
[2] = target: full-length, wild-type human integrin β4 subunit (pRC-CMV-β4) (human) (UniProt P16144); experiment: co-IP; CHO transfectants with β4 constructs alone or with 12-LOX; lysis in 1 % Triton X-100, 0.5 % NP-40, 150 mM NaCl, 10 mM Tris pH 7.4; IP with anti-β4 mAbs (3E1, 439-9B, 450-11A) or anti-12-LOX antibody and protein G Sepharose at 4 °C; Western blot
[3] = target: T2, headless, truncated human integrin β4 (pCMV-β4 Δ70-660), extracellular sequences replaced by a c-myc epitope tag (human); experiment: as above
[4] = target: T3, tail-less, truncated human integrin β4 lacking the cytoplasmic domain (pCMV-β4 Δ854-1752) (human); experiment: as above

Molecule	binding [1]	binding [2]	binding [3]	binding [4]
integrin β1 subunit (from UniProt P05556 21-798) (receptor)	no binding			
B1		binds	binds	no binding
